Assay results: PubChem BioAssay AID1508624 (National Center for Advancing Translational Sciences (NCATS), 2021)
About 120 (0.25%) of roughly 48,000 compounds were called active. Another 4% or so got no clear call; they are omitted. Calls follow the shape of the dose curve; as a rule, active = well fitted activation curve with a large enough effect; inconclusive = small, poorly fitted or top-dose-only effect, or another doubt; inactive = no such curve, though single readings can be large or run the other way. The list shows a part of the results, in another mix than the full data. Where no call is shown, the source filed none.

Assay: Primary qHTS for Identification of Small Molecule Activators of Huntingtin-Antisense Promoter Activity; also: nearly all actives have a fitted effect of over 55% in size
Conditions: HEK293 HTT-AS promoter firefly luciferase reporter, 24 h; activity change, positive = activation: at 57.5 µM (top of the series), percent change from vehicle, -100% = no light
Outline: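 HEK293 cells carrying firefly luciferase reporters were seeded at 2,500 per well in Opti-MEM and cultured for 24 h. They were then treated with compounds at up to 57.5 uM final for 24 h at 37 degrees C before Dual-Glo luminescence readout.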
Potency is read from the fitted curve at half-maximal effect.

| SMILES | activity change, positive = activation | Potency |
| --- | --- | --- |
| Cc1ccc(CSc2nc3cccnc3n2Cc2ccc(C(=O)NC3CCCCC3)cc2)cc1 | inactive: 18.7% |  |
| Cc1nn(-c2ccc(N3CCCC3)nn2)c(C)c1CCC(=O)N1CCN(c2ccccc2F)CC1 | -14.3% |  |
| CC1=C(C(=O)OC2CCCC2)C(c2ccccc2C(F)(F)F)CC(=O)N1 (stereo unspecified) | inactive: -33% |  |
| CC(C)Oc1ccc(CNC(=O)Cn2nc(N3CCN(c4ccccc4)CC3)ccc2=O)cc1 | inactive: -28.5% |  |
| Cc1ccc(NS(=O)(=O)c2ccc(-c3cc(C)no3)cc2)c(Br)c1 | -28.6% |  |
| COc1ccccc1CNC(=O)CCc1c(C)c2ccc(OC)c(C)c2oc1=O | -3.02% |  |
| COc1ccc(NC(=O)c2c(C(=O)Nc3ccccc3)sc3nc(C)cc(=O)n23)cc1 | -4.77% |  |
| COc1c(C)cc(S(=O)(=O)Nc2cccc(-c3ccc(N4CCOCC4)nn3)c2)c(C)c1C | 21.4% |  |
| Cc1cc(O)c2c(C)c(CC(=O)N3CCCCC3)c(=O)oc2c1 | 12.8% |  |
| CCOc1ccc(C2C(=O)N(C3CCCCC3)CC(=O)N2CCC2=CCCCC2)cc1OC (stereo unspecified) | -7.57% |  |
| COc1ccccc1CN1C(=O)C(=O)c2cccc(C)c21 | inactive: -12.2% |  |
| CC(=O)Nc1ccc(S(=O)(=O)Nc2cccc(-c3ccc(N4CCCCCC4)nn3)c2)cc1 | 42.6% |  |
| CC(NC(=O)CSc1nc(-c2cccc(Cl)c2)nc2cc(=O)[nH]n12)c1nc2ccccc2n1C (stereo unspecified) | -10.4% |  |
| COc1ccc(-c2nc3ccccc3s2)cc1NC(=O)c1cccc([N+](=O)[O-])c1C |  | active: 2 µM |
| CCCOc1ccc(NC(=O)CC2C(=O)N(c3ccc(F)cc3)C(=O)N2CC(C)C)cc1 (stereo unspecified) | -19.1% |  |
| C=C(C)Cn1c(SCC(=O)Nc2cccc(C)c2)nc2sc3c(c2c1=O)CCCC3 | -1.81% |  |
| CC(NC(=O)CN1C(=O)COc2ccc(Cl)cc21)c1ccccc1 (stereo unspecified) | -1.61% |  |
| Cc1nc2ccn(Cc3cccs3)c(=O)c2cc1C(=O)NCc1ccc(Cl)cc1 | -27.5% |  |
| CCc1cc(=O)oc2c(C)c3c(cc12)CN(CCc1ccccc1)CO3 | -9.23% |  |
| CCc1ccc(NC(=O)c2ccc(F)c(S(=O)(=O)N3CCc4ccccc4C3)c2)cc1 | inactive: -19.7% |  |
| Cc1ccc(NS(=O)(=O)c2ccc(-c3cc(C)no3)cc2)c(C)c1 | -32.8% |  |
| CCCOc1ccc(NC(=O)CC2C(=O)N(c3ccccc3)C(=O)N2CCC(C)C)cc1 (stereo unspecified) | -23.8% |  |
| COc1cccc(CNC(=O)CC(c2ccc(F)cc2)N2Cc3ccccc3C2=O)c1 (stereo unspecified) | -16.7% |  |
| Cc1ccc(-c2nnc(Nc3ccc(Br)cc3)c3ccccc23)cc1S(=O)(=O)N1CCCCC1 | -3.11% |  |

| SMILES | activity change, positive = activation | Potency |
| --- | --- | --- |
| COc1ccc(-c2cc(C(=O)Nc3c(Cl)cccc3Cl)no2)cc1OC | 17.7% |  |
| Cc1ccc(-c2cc(C(=O)Nc3c(C(=O)c4ccccc4)oc4ccccc34)no2)cc1F | 0.877% |  |
| Cc1ccc(CNS(=O)(=O)c2c(C)nc3scc(C)n3c2=O)cc1 | 3.49% |  |
| CCOc1ccc(C(=O)Nc2cccc(-c3nc4cc(Cl)cc(Cl)c4o3)c2)cc1 | 1.45% |  |
| Cc1ccccc1-c1nc2cc(NC(=O)Cc3ccc(Cl)cc3)ccc2o1 | inactive: -7.09% |  |
| CC(=O)Nc1ccc(S(=O)(=O)N2CCC(n3c(C(F)(F)F)nc4cccnc43)CC2)cc1 | -5.31% |  |
| COc1ccc(CNC(=O)c2cc(-c3ccc(OC)cc3)on2)cc1 | 8.88% |  |
| Cc1ccc(C)c(OCCn2c(-c3ccc(Cl)cc3)nc3ccccc3c2=O)c1C | -4.81% |  |
| Cc1cc(F)ccc1S(=O)(=O)NCC(c1ccco1)S(=O)(=O)c1cccs1 (stereo unspecified) | inactive: -4.77% |  |
| CC1Cc2cc(S(=O)(=O)N3CCN(c4ccccc4F)CC3)ccc2N1C(=O)C1CCC1 (stereo unspecified) | -36.8% |  |
| Cc1cccc(OCCn2c(-c3ccc(Cl)cc3)nc3ccccc3c2=O)c1 | -8.22% |  |
| COc1cc(NC(=O)CC2C(=O)N(c3ccc(Cl)cc3)C(=O)N2Cc2cccs2)cc(OC)c1 (stereo unspecified) | -34.1% |  |
| C=C1[C@H](n2cnc3c(=O)[nH]c(N)nc32)C[C@H](O)[C@H]1CO | inactive: -7.72% |  |
| C=C(C)CSc1nc2sc3c(c2c(=O)n1-c1ccccc1)CC(C(C)C)OC3 (stereo unspecified) | -1.45% |  |
| Cn1c(=O)c2c(-c3ccccc3)n3c(c2n(C)c1=O)C(c1ccco1)Nc1ccccc1-3 (stereo unspecified) | 3.75% |  |
| Cc1nn(-c2ccc(N3CCCC3)nn2)c(C)c1CCC(=O)N1CCN(c2ccccc2)CC1 | -18.8% |  |
| COc1ccc2c(C)c(CCC(=O)NCc3ccc(Cl)cc3)c(=O)oc2c1C | -14.3% |  |
| COc1cc2c(-c3cc(Br)ccc3O)nc3c(c(C)nn3-c3ccccc3)c2cc1OC | -18.9% |  |
| CCc1ccc(S(=O)(=O)Nc2ccc(-c3ccc(N4CCCC4)nn3)cc2)cc1 | 5.87% |  |
| NC(=O)Nc1cc(-c2ccc(CN3CCOCC3)cc2)sc1C(N)=O |  | active: 21.7 µM |
| CCN1CCN(Cc2c(O)ccc3oc(C)c(C(=O)Nc4cccc(C(F)(F)F)c4)c23)CC1 | -22.7% |  |
| CC1CCN(c2ccc(-c3cccc(NS(=O)(=O)c4ccc(F)cc4F)c3)nn2)CC1 | 49.1% |  |
| Cc1ccc(Nc2ncnc3sc4c(c23)CCC(C)C4)cc1C (stereo unspecified) | inactive: -3.14% |  |
| CCc1c(C)c2cc3c(c(C)c2oc1=O)OCN(CCc1ccccc1F)C3 | 9.56% |  |

| SMILES | activity change, positive = activation | Potency |
| --- | --- | --- |
| Cc1nc(-c2ccc(F)cc2)sc1CCNC(=O)Cc1ccc(F)cc1 | inactive: -34.3% |  |
| COc1ccc(C(Nc2ccccn2)c2ccc3ccc(C)nc3c2O)cc1C (stereo unspecified) | inactive: -30.8% |  |
| Cc1cccc(N2CCN(C3=C(c4ccccc4)C(=O)c4ccccc43)CC2)c1C | -5.99% |  |
| CC(=O)c1ccc(NS(=O)(=O)c2ccc3c(c2)NC(=O)CCS3)cc1 | inactive: -19.4% |  |
| CCOc1ccccc1CNCCCSc1nnnn1C | inactive: -4.74% |  |
| Cc1nc2scc(C)n2c(=O)c1S(=O)(=O)Nc1cccc(O)c1 | -11.6% |  |
| COc1ccc(-c2cc(C(=O)Nc3cc(C)ccc3O)no2)cc1OC | 10% |  |
| COc1ccc(NCc2ccccc2-c2nnc(-c3ccccc3)o2)cc1Cl | 32.3% |  |
| Cc1cc(NC(c2nnc(-c3ccccc3)o2)c2ccccc2F)ccc1Br (stereo unspecified) | -19.6% |  |
| O=C(NCC(c1ccc2c(c1)OCO2)N1CCOCC1)c1ccccc1 (stereo unspecified) | inactive: -5.21% |  |
| COc1ccc(OC)c(-c2cc(C(=O)Nc3ccc(C)c(C)c3)no2)c1 | 8.61% |  |
| COc1cc(OC)cc(C(=O)Nc2cc3c(cc2N2CCCCC2)n(C)c(=O)n3C)c1 | 3.02% |  |
| COc1ccc(CNC(=O)c2cnc3sc(N4CCC(C)CC4)nn3c2=O)c(OC)c1 | 10.1% |  |
| COC(=O)COc1ccc(C2C(C(=O)OC)=C(C)NC3=C2C(=O)c2ccccc23)cc1OC (stereo unspecified) | -12.5% |  |
| Cc1ccc(-c2nc3ccccc3[nH]2)cc1NC(=O)COc1ccccc1[N+](=O)[O-] | inactive: -36.3% |  |
| Cc1ccc(CNC(=O)Cn2c(SCC(=O)Nc3ccc(F)cc3)nc3ccccc32)cc1 | inactive: -38.1% |  |
| CCOc1ccc(C2C(=O)N(C3CCCCCC3)CC(=O)N2Cc2ccccc2)cc1OC (stereo unspecified) | -17.6% |  |
| CC(=O)c1cccc(NC(=O)Nc2sc3nc4n(c(=O)c3c2C)CCC(C)CC4)c1 (stereo unspecified) | -9.48% |  |
| COc1ccc2c(C)c(CC(=O)NCCc3ccc(Cl)cc3)c(=O)oc2c1C | 2.81% |  |
| O=C(Nc1cc(-c2ccccc2)sc1C(=O)O)c1cccc(F)c1 | inactive: -1.58% |  |
| CCCOC(=O)c1cccc(Nc2nc(CCC)cc(=O)[nH]2)c1 | -46.3% |  |
| CCOC(=O)c1cccc(NC(=O)c2ccc3c(c2)nnn3CC)c1 | inactive: -2.58% |  |
| Cc1ccccc1C(=O)Nc1cccc(OCc2cc(=O)n3c4c(sc3n2)CCCC4)c1 | inactive: -7% |  |
| O=C(CCCCn1c(=O)[nH]c2ccsc2c1=O)N1CCN(c2cccc(C(F)(F)F)c2)CC1 | inactive: -39.9% |  |

| SMILES | activity change, positive = activation | Potency |
| --- | --- | --- |
| CCN1CCN(Cc2c(O)ccc3oc(C)c(C(=O)Nc4ccc(OC)cc4)c23)CC1 | 12.1% |  |
| COc1cccc(-c2cc(C(=O)NCc3ccccc3)no2)c1 | 23.4% |  |
| Cc1ccccc1C(=O)N1CCC(N2CCN(Cc3ccc(F)cc3)C(=O)C2=O)CC1 | 2.16% |  |
| CCOc1ccc(NC(=O)CSc2nc(-c3cccs3)cc(C(F)(F)F)c2C#N)cc1 | inactive: -4.64% |  |
| CCCCCNC(=O)c1cc2c(=O)n3ccccc3nc2n1C |  | active: 2 µM |
| COc1cccc(C(=O)NCC2OCCc3ccccc32)c1 (stereo unspecified) | 20.2% |  |
| CCCOc1ccc(C2C(=O)N(C3CCCCCC3)CC(=O)N2Cc2ccccc2OC)cc1OC (stereo unspecified) | -29.4% |  |
| Cc1ccc(Nc2nc3nonc3nc2Nc2cccc(C(F)(F)F)c2)cc1Cl | inactive: -91% |  |
| CCOC(=O)[C@@H](N)CCC(=O)N[C@@H](CSCc1ccccc1)C(=O)N[C@@H](C(=O)OCC)c1ccccc1 | inactive: -17.7% |  |
| Cc1cccc(-n2c(C)cc(C(=O)C(=O)Nc3ccccc3F)c2C)c1C | inactive: -20.3% |  |
| Cc1ccc(S(=O)(=O)N2CCC(N3CCN(Cc4ccccc4)C(=O)C3=O)CC2)cc1C | -11.9% |  |
| O=C(NCc1ccccc1)C1CCN(S(=O)(=O)Cc2ccccc2)CC1 | -4.23% |  |
| COC(=O)c1ccc(N2C(=O)Cc3cc(OC)c(OC)cc3C2c2ccc(F)cc2)cc1 (stereo unspecified) | -21.5% |  |
| O=C1C(c2ccc(F)cc2)N(CCc2ccc(Cl)cc2)C(=O)CN1C1CCCCC1 (stereo unspecified) | -21.3% |  |
| CCc1ccc(S(=O)(=O)Nc2cccc(-c3ccc(N4CCCCC4)nn3)c2)s1 | 38.1% |  |
| COc1cccc(-c2cc(C(=O)NCCc3ccc(OC)c(OC)c3)no2)c1 | -3.22% |  |
| O=C(COc1ccc(F)cc1)OCc1cc(=O)n2nc(C3CC3)sc2n1 | inactive: -8.4% |  |
| CCCCN(C)CC(O)Cn1cc(/C=C/C(=O)c2ccc(OCC)cc2)c2ccccc21 (stereo unspecified) | inactive: -20% |  |
| CC#CCn1c(N2CCC[C@@H](N)C2)nc2c1c(=O)n(Cc1nc(C)c3ccccc3n1)c(=O)n2C | inactive: -3.17% |  |
| COC(=O)c1cc2oc3ccccc3c2n1CC(=O)Nc1ccc(C)cc1Cl | 15.1% |  |
| Cc1ccc(C)c(N2CCN(CCCNC(=O)c3ccc4nc(C(C)C)oc4c3)CC2)c1 | inactive: -29.9% |  |
| CCOc1ccc(CCNC(c2nnc(-c3ccccc3)o2)c2ccccc2Cl)cc1OCC (stereo unspecified) | -26.8% |  |
| CC(=O)c1ccc(NC(=O)c2nn(C)c3c2CS(=O)(=O)c2ccccc2-3)cc1 | inactive: -1.75% |  |
| Cc1ccc(-n2ncc(C(=O)N(C)Cc3ccccc3)c2-n2cccc2)cc1 | -27.5% |  |
